# Data published in the supplement of paper PMC8728848.
# The list shows a part of the results.
# Assays:
# Assay in all cases: glycan array binding signal (z-score within array); higher = stronger binding
# Conditions in all cases: glycan notation: IUPAC condensed, linker removed
# [1] = target: GalNAc3S(b1-4)[Fuc(a1-3)]GlcNAc
# How it was run: (§1)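 Glycan array data were curated from 3228 arrays in the Consortium for Functional Glycomics database and kept only where the protein sequence was available. Glycan names were converted to IUPAC-condensed notation, and columns mapping to the same glycan were averaged. The binding signal is a within-array Z-score, averaged across arrays of the same protein sequence at different concentrations or buffers and across linkers. Negative Z-scores can be read as non-binding.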
# GalNAc4S6S(b1-4)GlcNAc = target: GalNAc4S6S(b1-4)GlcNAc
# How it was run: as §1
# GalNAc6S(b1-4)GlcNAc = target: GalNAc6S(b1-4)GlcNAc
# How it was run: as §1
# Glc(a1-4)Glc = target: Glc(a1-4)Glc
# How it was run: as §1
# [2] = target: Glc(a1-4)Glc(a1-4)Glc(a1-4)Glc
# How it was run: as §1
# Glc(a1-6)Glc(a1-6)Glc = target: Glc(a1-6)Glc(a1-6)Glc
# How it was run: as §1
# [3] = target: Glc(a1-6)Glc(a1-6)Glc(a1-6)Glc
# How it was run: as §1
# Glc(b1-4)Glc = target: Glc(b1-4)Glc
# How it was run: as §1
# Glc(b1-6)Glc = target: Glc(b1-6)Glc
# How it was run: as §1
# GlcA(b1-3)Gal = target: GlcA(b1-3)Gal
# How it was run: as §1
# GlcA(b1-3)GlcNAc = target: GlcA(b1-3)GlcNAc
# How it was run: as §1
# GlcA(b1-6)Gal = target: GlcA(b1-6)Gal
# How it was run: as §1
# [4] = target: GlcA3S(b1-3)Gal(b1-4)GlcNAc(b1-2)Man
# How it was run: as §1
# [5] = target: GlcA3S(b1-3)Gal(b1-4)GlcNAc(b1-3)Gal(b1-4)Glc
# How it was run: as §1
# [6] = target: GlcNAc(a1-3)Gal(b1-4)GlcNAc
# How it was run: as §1
# [7] = target: GlcNAc(a1-4)Gal(b1-3)GlcNAc
# How it was run: as §1
# [8] = target: GlcNAc(a1-4)Gal(b1-4)GalNAc
# How it was run: as §1
# [9] = target: GlcNAc(a1-4)Gal(b1-4)GlcNAc
# How it was run: as §1
# [10] = target: GlcNAc(a1-4)Gal(b1-4)GlcNAc(b1-3)Gal(b1-4)Glc
# How it was run: as §1
# [11] = target: GlcNAc(a1-4)Gal(b1-4)GlcNAc(b1-3)Gal(b1-4)GlcNAc
# How it was run: as §1
# [12] = target: GlcNAc(a1-4)Gal(b1-4)GlcNAc(b1-3)Gal(b1-4)GlcNAc(b1-3)Gal(b1-4)GlcNAc
# How it was run: as §1
# [13] = target: GlcNAc(a1-4)Gal(b1-4)GlcNAc(b1-3)Gal(b1-4)[Fuc(a1-3)]GlcNAc(b1-3)Gal(b1-4)[Fuc(a1-3)]GlcNAc
# How it was run: as §1
# [14] = target: GlcNAc(a1-6)Gal(b1-4)GlcNAc
# How it was run: as §1
# [15] = target: GlcNAc(b1-2)Gal(b1-3)GalNAc
# How it was run: as §1
# [16] = target: GlcNAc(b1-2)Man(a1-3)[GlcNAc(b1-2)Man(a1-6)]Man(b1-4)GlcNAc(b1-4)GlcNAc
# How it was run: as §1
# [17] = target: GlcNAc(b1-2)Man(a1-3)[GlcNAc(b1-2)Man(a1-6)]Man(b1-4)GlcNAc(b1-4)[Fuc(a1-6)]GlcNAc
# How it was run: as §1
# [18] = target: GlcNAc(b1-2)Man(a1-3)[GlcNAc(b1-4)][GlcNAc(b1-2)Man(a1-6)]Man(b1-4)GlcNAc(b1-4)GlcNAc
# How it was run: as §1
# [19] = target: GlcNAc(b1-2)Man(a1-3)[GlcNAc(b1-4)][GlcNAc(b1-2)Man(a1-6)]Man(b1-4)GlcNAc(b1-4)[Fuc(a1-6)]GlcNAc
# How it was run: as §1
# [20] = target: GlcNAc(b1-2)[GlcNAc(b1-4)]Man(a1-3)[GlcNAc(b1-2)Man(a1-6)]Man(b1-4)GlcNAc(b1-4)GlcNAc
# How it was run: as §1
# [21] = target: GlcNAc(b1-2)[GlcNAc(b1-4)]Man(a1-3)[GlcNAc(b1-4)][GlcNAc(b1-2)Man(a1-6)]Man(b1-4)GlcNAc(b1-4)GlcNAc
# How it was run: as §1
# [22] = target: GlcNAc(b1-2)[GlcNAc(b1-4)]Man(a1-3)[GlcNAc(b1-4)][GlcNAc(b1-2)[GlcNAc(b1-6)]Man(a1-6)]Man(b1-4)GlcNAc(b1-4)GlcNAc
# How it was run: as §1
# [23] = target: GlcNAc(b1-2)[GlcNAc(b1-4)]Man(a1-3)[GlcNAc(b1-4)][GlcNAc(b1-2)[GlcNAc(b1-6)]Man(a1-6)]Man(b1-4)GlcNAc(b1-4)[Fuc(a1-6)]GlcNAc
# How it was run: as §1
# [24] = target: GlcNAc(b1-2)[GlcNAc(b1-6)]Man(a1-6)[GlcNAc(b1-2)Man(a1-3)]Man(b1-4)GlcNAc(b1-4)GlcNAc
# How it was run: as §1
# [25] = target: GlcNAc(b1-2)[GlcNAc(b1-6)]Man(a1-6)[GlcNAc(b1-2)Man(a1-3)]Man(b1-4)GlcNAc(b1-4)[Fuc(a1-6)]GlcNAc
# How it was run: as §1
# [26] = target: GlcNAc(b1-2)[GlcNAc(b1-6)]Man(a1-6)[GlcNAc(b1-4)][GlcNAc(b1-2)Man(a1-3)]Man(b1-4)GlcNAc(b1-4)GlcNAc
# How it was run: as §1
# GlcNAc(b1-3)Fuc = target: GlcNAc(b1-3)Fuc
# How it was run: as §1
# GlcNAc(b1-3)Gal = target: GlcNAc(b1-3)Gal
# How it was run: as §1
# [27] = target: GlcNAc(b1-3)Gal(b1-3)GalNAc
# How it was run: as §1
binder,measurement,setting,value
PX15618A-bth-503-24-503 (Bacteroides thetaiotaomicron) (protein) NKSEDKLSGDDFWAQGNETNAEAFLLSIYNSFRNATMSQRPFLTYSGDMRCAPITAYSTGDKYVAYLANNDMGELRNTYPDDARGGLIMQWDVFYTAIQDANILLAEIDKVPGMDELKRSRFKAEAIFMRSLSYFFIVRAFGDVPYYTNAYNEAPLPRTNMVIVLQNCLADLQPLLDDDPGAEVLPWSYSSYSSKGIRASRGSVIALMMHINLWLVQFDAQNKEQYYRNVVSLGEELERNNGAYSLLDINRSSVIFAGGSDEGLFEIAQNINFNEIFMMNAKFSDNVSYSCLNKSMPLFCYSGDYLMTLFPMYEDDARKELWFDEKIYSTSVSSSAPKEIKKFWNIDTYGNGTITSNSGNQIVFRYAGALLLYAEALAALGTNDTKACELLNRVRNRAHASEINTSGSELMDAIFWERCRELIGEGHYYYDLVRTGKVYNRNYCMNPMTRTNFNVGAWTWPIHRNALKNNTQIGLNLFWE,glycan array binding signal (z-score),[1],-0.361
same,glycan array binding signal (z-score),GalNAc4S6S(b1-4)GlcNAc,0.28
same,glycan array binding signal (z-score),GalNAc6S(b1-4)GlcNAc,0.458
same,glycan array binding signal (z-score),Glc(a1-4)Glc,0.152
same,glycan array binding signal (z-score),[2],-0.5
same,glycan array binding signal (z-score),Glc(a1-6)Glc(a1-6)Glc,-0.476
same,glycan array binding signal (z-score),[3],-0.359
same,glycan array binding signal (z-score),Glc(b1-4)Glc,-0.535
same,glycan array binding signal (z-score),Glc(b1-6)Glc,-0.478
same,glycan array binding signal (z-score),GlcA(b1-3)Gal,-0.801
same,glycan array binding signal (z-score),GlcA(b1-3)GlcNAc,-0.316
same,glycan array binding signal (z-score),GlcA(b1-6)Gal,-0.758
same,glycan array binding signal (z-score),[4],-0.619
same,glycan array binding signal (z-score),[5],-0.378
same,glycan array binding signal (z-score),[6],-0.55
same,glycan array binding signal (z-score),[7],-0.55
same,glycan array binding signal (z-score),[8],0.061
same,glycan array binding signal (z-score),[9],-0.394
same,glycan array binding signal (z-score),[10],-0.749
same,glycan array binding signal (z-score),[11],-0.663
same,glycan array binding signal (z-score),[12],-0.188
same,glycan array binding signal (z-score),[13],0.179
same,glycan array binding signal (z-score),[14],-0.863
same,glycan array binding signal (z-score),[15],-0.413
same,glycan array binding signal (z-score),[16],-0.362
same,glycan array binding signal (z-score),[17],0.268
same,glycan array binding signal (z-score),[18],-0.381
same,glycan array binding signal (z-score),[19],-0.489
same,glycan array binding signal (z-score),[20],-0.803
same,glycan array binding signal (z-score),[21],-0.186
same,glycan array binding signal (z-score),[22],-0.408
same,glycan array binding signal (z-score),[23],-0.581
same,glycan array binding signal (z-score),[24],-0.173
same,glycan array binding signal (z-score),[25],-0.147
same,glycan array binding signal (z-score),[26],-0.252
same,glycan array binding signal (z-score),GlcNAc(b1-3)Fuc,-0.133
same,glycan array binding signal (z-score),GlcNAc(b1-3)Gal,0.956
same,glycan array binding signal (z-score),[27],0.187
